Test results taken from the antibiotic and cytotoxicity screens of Wong et al. (2023).
Some of the results follow.

Experiments:
HSkMC = human skeletal muscle cells; assay: cytotoxicity call (relative viability < 0.9); conditions: 10 µM
HepG2 = assay: cytotoxicity call (relative viability < 0.9); conditions: 10 µM
S. aureus RN4220 = assay: growth inhibition call (relative growth <= 0.2); conditions: 50 µM

C[C@H]1CCCCO[C@H](CN(C)C(=O)Nc2ccccc2)[C@@H](C)CN([C@@H](C)CO)C(=O)c2cc(NC(=O)c3ccncc3)ccc2O1
cytotoxicity call (HSkMC): inactive | cytotoxicity call (HepG2): inactive | growth inhibition call (S. aureus RN4220): inactive

C[C@H]1CN([C@@H](C)CO)C(=O)c2cc(NC(=O)NC3CCCCC3)ccc2O[C@@H]1CN(C)C(=O)Nc1cccc2ccccc12
cytotoxicity call (HSkMC): inactive | cytotoxicity call (HepG2): inactive | growth inhibition call (S. aureus RN4220): inactive

C[C@H](CO)N1C[C@H](C)[C@H](CN(C)S(=O)(=O)c2ccccc2)Oc2ccc(NC(=O)C3CC3)cc2CC1=O
cytotoxicity call (HSkMC): inactive | cytotoxicity call (HepG2): inactive | growth inhibition call (S. aureus RN4220): inactive

CC(C)NC(=O)Nc1ccc2c(c1)C(=O)N([C@@H](C)CO)C[C@@H](C)[C@H](CN(C)C(=O)Nc1ccc(F)cc1)OCCCC[C@H](C)O2
cytotoxicity call (HSkMC): inactive | cytotoxicity call (HepG2): inactive | growth inhibition call (S. aureus RN4220): inactive

COc1ccc(NC(=O)N(C)C[C@H]2Oc3c(NS(=O)(=O)c4cn(C)cn4)cccc3C(=O)N([C@H](C)CO)C[C@H]2C)cc1
cytotoxicity call (HSkMC): inactive | cytotoxicity call (HepG2): inactive | growth inhibition call (S. aureus RN4220): inactive

COCC#Cc1cnc2c(c1)C(=O)N([C@@H](C)CO)C[C@@H](C)[C@@H](CN(C)C(C)=O)O2
cytotoxicity call (HSkMC): inactive | cytotoxicity call (HepG2): inactive | growth inhibition call (S. aureus RN4220): inactive

C[C@@H]1CCCCO[C@H](CN(C)Cc2ccc(C(=O)O)cc2)[C@@H](C)CN([C@H](C)CO)C(=O)c2cc(NC(=O)Nc3cccc4ccccc34)ccc2O1
cytotoxicity call (HSkMC): inactive | cytotoxicity call (HepG2): inactive | growth inhibition call (S. aureus RN4220): inactive

N=C(N)Nc1nc(=O)c2ccccc2[nH]1
cytotoxicity call (HSkMC): inactive | cytotoxicity call (HepG2): inactive | growth inhibition call (S. aureus RN4220): inactive

C[C@@H]1CN([C@@H](C)CO)C(=O)c2cc(NC(=O)NC3CCCCC3)ccc2O[C@@H](C)CCCCO[C@H]1CN(C)S(=O)(=O)c1ccc(F)cc1
cytotoxicity call (HSkMC): inactive | cytotoxicity call (HepG2): inactive | growth inhibition call (S. aureus RN4220): inactive

COc1ccc2c3c(n(c2c1)C)[C@H](CO)N(Cc1cc(cc(c1)OC)OC)C[C@]13CN(C1)S(=O)(=O)c1cn(cn1)C
cytotoxicity call (HSkMC): inactive | cytotoxicity call (HepG2): inactive | growth inhibition call (S. aureus RN4220): inactive

COc1ccc(NC(=O)N2C[C@@H](O)COC[C@H]3O[C@@H](CC(=O)NCc4ccccc4OC)CC[C@@H]32)cc1
cytotoxicity call (HSkMC): inactive | cytotoxicity call (HepG2): inactive | growth inhibition call (S. aureus RN4220): inactive

COCC#Cc1cnc2c(c1)C(=O)N([C@@H](C)CO)C[C@H](C)[C@@H](CN(C)S(=O)(=O)c1ccccc1)O2
cytotoxicity call (HSkMC): inactive | cytotoxicity call (HepG2): inactive | growth inhibition call (S. aureus RN4220): inactive

C[C@H]1CN([C@@H](C)CO)C(=O)c2ccccc2-c2ccccc2CO[C@H]1CN(C)C(=O)Nc1cccc(Cl)c1Cl
cytotoxicity call (HSkMC): inactive | cytotoxicity call (HepG2): inactive | growth inhibition call (S. aureus RN4220): inactive

COc1ccc(CNC(=O)C[C@H]2CC[C@H]3[C@H](COc4ccc(NC(=O)C(C)C)cc4C(=O)N3C)O2)cc1
cytotoxicity call (HSkMC): inactive | cytotoxicity call (HepG2): inactive | growth inhibition call (S. aureus RN4220): inactive

C=CCn1c(=O)n([C@H]2O[C@@H](CO)[C@@H](O)[C@@H]2O)c2[nH]c(N)nc(=O)c21
cytotoxicity call (HSkMC): inactive | cytotoxicity call (HepG2): inactive | growth inhibition call (S. aureus RN4220): inactive

C[C@@H]1CN([C@@H](C)CO)C(=O)c2cc(NC(=O)Cc3ccccc3)ccc2O[C@H]1CN(C)Cc1ccc(-c2ccccc2)cc1
cytotoxicity call (HSkMC): inactive | cytotoxicity call (HepG2): active | growth inhibition call (S. aureus RN4220): inactive

COc1ccc(Cc2c(O)[nH]c(N)nc2=O)cc1
cytotoxicity call (HSkMC): inactive | cytotoxicity call (HepG2): inactive | growth inhibition call (S. aureus RN4220): inactive

COc1cccc(S(=O)(=O)N2C[C@H](O)COC[C@@H]3O[C@@H](CC(=O)N4CCN(C)CC4)CC[C@H]32)c1
cytotoxicity call (HSkMC): inactive | cytotoxicity call (HepG2): inactive | growth inhibition call (S. aureus RN4220): inactive

CC(C)NC(=O)Nc1ccc2c(c1)C(=O)N([C@H](C)CO)C[C@@H](C)[C@@H](CN(C)Cc1ccccc1)OCCCC[C@H](C)O2
cytotoxicity call (HSkMC): inactive | cytotoxicity call (HepG2): inactive | growth inhibition call (S. aureus RN4220): inactive

C[C@H]1CN([C@@H](C)CO)C(=O)c2cc(NC(=O)CCN3CCOCC3)ccc2O[C@@H]1CN(C)S(=O)(=O)c1cccs1
cytotoxicity call (HSkMC): inactive | cytotoxicity call (HepG2): inactive | growth inhibition call (S. aureus RN4220): inactive

CCS(=O)(=O)Nc1ccc2c(c1)C(=O)N(C)[C@H]1CC[C@H](CC(=O)NCCCN3CCOCC3)O[C@H]1CO2
cytotoxicity call (HSkMC): inactive | cytotoxicity call (HepG2): inactive | growth inhibition call (S. aureus RN4220): inactive

C[C@@H]1CN([C@@H](C)CO)C(=O)Cc2cc(NS(C)(=O)=O)ccc2O[C@H]1CN(C)C
cytotoxicity call (HSkMC): inactive | cytotoxicity call (HepG2): inactive | growth inhibition call (S. aureus RN4220): inactive

COc1ccc(CN(C)C[C@@H]2OCCCC[C@H](C)Oc3ccc(NC(=O)Cc4ccccc4)cc3C(=O)N([C@H](C)CO)C[C@H]2C)cc1
cytotoxicity call (HSkMC): inactive | cytotoxicity call (HepG2): inactive | growth inhibition call (S. aureus RN4220): inactive

CC1CCC2C(C)(C)C3CC12CCC3(C)O (stereo not drawn)
cytotoxicity call (HSkMC): inactive | cytotoxicity call (HepG2): inactive | growth inhibition call (S. aureus RN4220): inactive

CC(C)NC(=O)Nc1ccc2c(c1)C(=O)N([C@H](C)CO)C[C@@H](C)[C@H](CN(C)Cc1ccc(-c3ccccc3)cc1)O2
cytotoxicity call (HSkMC): inactive | cytotoxicity call (HepG2): inactive | growth inhibition call (S. aureus RN4220): inactive

C[C@@H]1CN([C@@H](C)CO)C(=O)c2cc(NS(C)(=O)=O)ccc2O[C@@H](C)CCCCO[C@@H]1CN(C)S(=O)(=O)c1ccc(F)cc1
cytotoxicity call (HSkMC): inactive | cytotoxicity call (HepG2): inactive | growth inhibition call (S. aureus RN4220): inactive
